Data on 82 compounds can be found in ChEMBL document CHEMBL4888484, “Replenishing the malaria drug discovery pipeline: Screening and hit evaluation of the MMV Hit Generation Library 1 (HGL1) against asexual blood stage Plasmodium falciparum ,using a nano luciferase reporter read-out” (2022).

A word on the % Inhibition: it is the relative decrease from the control value, in per cent.

Among all 150,000 compounds or so, about 540 (0.36%) showed an effect of 50% or more. Some of the results follow.

For the experiment, the system named is Plasmodium falciparum. As to the kind of experiment: Primary screen in NF54 nanoGlo assay, in single point, at 2uM, 72h; a lower Z score goes with more inhibition. The settings on record: timepoint 72 hour. The format is functional, Erythrocyte.
As for `CC1CN(CCCNC(=O)c2ccoc2C2(O)CCOCC2)CC(C)O1` (centres undefined), the “% Inhibition” value is given as -9% and the Z score worked out at 0.83.
As for `Cn1cc(-c2noc(C3(c4ccccc4F)CC3)n2)cn1`, the “% Inhibition” value is reported as -2% and the Z score is 0.32.
Consider `COCCN(CC1CCN(Cc2ccccc2F)CC1)C(=O)CCn1cnnn1`, for which the “% Inhibition” value was -1% and the Z score is given as 0.14.
For `Cc1ccc(-c2nnc([C@H]3CN(C(=O)CC(C)(C)C)CC34CCOCC4)o2)cc1`, the “% Inhibition” value is recorded as -6% and the Z score is reported as 1.18.
For the compound `CCc1nnc(N2CCC[C@H](CNS(=O)(=O)Cc3ccccc3)C2)s1`, the “% Inhibition” value is given as -14% and the Z score turned out to be 2.62.
With `CC1CC(C(=O)NCCCn2cn[nH]c2=O)CC(C)(C)C1` (centres undefined), the “% Inhibition” value is 0% and the Z score is reported as 0.05.
The like results for `COc1ccc(CNC[C@]2(COc3ccc(S(C)(=O)=O)cc3)C[C@@H](O)[C@@H](O)C2)cc1` were, in that order, -6% and 0.96.
For the compound `CC(C)(Oc1ccc(Cl)cc1)C(=O)N1CCN(c2cc(-n3cncn3)ncn2)CC1`, the “% Inhibition” value was -14% and the Z score amounted to 2.1.
As to `O=C(NCCn1ccnn1)Nc1c(F)cccc1Oc1ccccc1`, the “% Inhibition” value was -7% and the Z score amounted to 0.94.
Take `COc1ccc(-n2nnnc2C2(Nc3ccc4c(c3)OCO4)CCCC2)cc1`: the “% Inhibition” value is on record as -17% and the Z score stood at 2.61.
The like results for `c1ccc2c(C(c3ccc4c(c3)OCO4)c3c[nH]c4ccccc34)c[nH]c2c1` were, in that order, -13% and 2.16.
In the case of `O=C(CCn1cccn1)N[C@H]1CC(=O)N(CC2CCCCC2)C1`, the “% Inhibition” value is recorded as 11% and the Z score is given as -2.
For the compound `COCCN(CC(=O)Nc1nc(-c2ccccc2)cn1-c1ccc(OC)c(OC)c1)C(=O)c1ccc(C)cc1`, the “% Inhibition” value is -18% and the Z score was found to be 2.63.
Take `Cn1c(=O)c(C(=O)NCc2cccc(Cl)c2)nc2cccnc21`: the “% Inhibition” value is given as -1% and the Z score is 0.12.
Consider `O=C(Nc1ccccc1)C1CCN(c2cc(-c3cccc(F)c3)ncn2)CC1`, for which the “% Inhibition” value was -1% and the Z score is given as 0.16.
`Cc1cc(=O)n(CC(=O)N2CCc3ccccc32)c(Nc2cccc(F)c2)n1`: the “% Inhibition” value is on record as 11% and the Z score is -1.42.
The like results for `CCC1(CC)CN(Cc2ccc(O)c(OC)c2)CC[S@@+]1[O-]` were, in that order, 3% and -0.35.
In the case of `O=C(NCc1ccccc1)[C@@H]1COC2(CCN(C(=O)Cc3cccs3)CC2)N1C(=O)c1ccc(F)cc1`, the “% Inhibition” value is reported as -7% and the Z score is 0.84.
Consider `c1ccc(-n2ncc3c(NCc4cccnc4)nnnc32)cc1`, for which the “% Inhibition” value is listed as -7% and the Z score was 1.09.
The matching figures for `Cc1cccc(Cn2nc(C)nc2COCC(F)(F)C(F)F)c1`: -6% and 1.15.
The like results for `COc1cccc(NC(=O)[C@H](Cc2ccccc2)NS(=O)(=O)c2ccc3c(c2)c(=O)n(C)c(=O)n3C)c1` were, in that order, -3% and 0.41.
For `c1ccc(-c2nnc([C@H]3CCN(Cc4c[nH]c5ccccc45)C3)o2)cc1`, the “% Inhibition” value is -12% and the Z score was determined as 1.8.
The like results for `Cc1cc(C)n(-c2nc3c(c(=O)n2CC(=O)NC2CCCCC2)CCCC3)n1` were, in that order, -10% and 1.77.
The like results for `CC(C)(C)c1cnc(CN2CCC(N3CCCNC3=O)CC2)s1` were, in that order, -11% and 1.13.
In the case of `COCCN1CCC(CN(C[C@H]2CCCO2)C(=O)c2cnn(Cc3ccccc3)c2)CC1`, the “% Inhibition” value is on record as -25% and the Z score is on record as 2.31.
As to `C[C@@H](CN(C)C(=O)OC(C)(C)C)c1noc(-c2cc(C#N)c[nH]2)n1`, the “% Inhibition” value is listed as -4% and the Z score is on record as 0.57.
Turning to `N#Cc1c[nH]c(C(=O)NC2c3ccccc3CCC2n2ccnc2)c1` (centres undefined), the “% Inhibition” value is listed as -1% and the Z score was 0.11.
`COC[C@H]1COCCN1C(=O)Nc1cnc(Oc2ccccc2)nc1`: the “% Inhibition” value is listed as -12% and the Z score is recorded as 2.28.
The like results for `C[C@H](NC(=O)[C@H]1CC[C@H](CNS(=O)(=O)c2ccc(Cl)cc2)CC1)C(=O)NCCN(C)C` were, in that order, -12% and 1.28.
Consider `Cc1nnc(C(C)N2CCCC(c3ncc[nH]3)C2)s1` (centres undefined), for which the “% Inhibition” value is recorded as -4% and the Z score was found to be 0.62.
The like results for `Cc1c(N)cccc1N1CCCNC1=O` were, in that order, -13% and 1.55.
With `COc1ccc(S(=O)(=O)CCN)cc1`, the “% Inhibition” value is recorded as -5% and the Z score came to 0.68.
The matching figures for `CCOC1CC(NC(=O)Cn2cnnn2)C12CCCC2` (centres undefined): 2% and -0.36.
On to `Cn1cc([C@@H]2CCCCN2C(=O)c2cnns2)cn1`, for which the “% Inhibition” value is listed as -5% and the Z score is 0.58.
On to `O=C(Cc1ccc2[nH]c(=O)[nH]c2c1)N1CC[C@H]1C(F)(F)F`, for which the “% Inhibition” value was -2% and the Z score was 0.4.
The like results for `COc1ccc(C(=O)N[C@H](C(=O)NCC(C)C)C2CCN(C(=O)c3cccc(F)c3)CC2)cc1` were, in that order, 1% and -0.13.
For `CCc1nc([C@@H]2CCCN2Cc2ncc(C(C)C)o2)no1`, the “% Inhibition” value was -2% and the Z score is recorded as 0.18.
The matching figures for `Cc1ccc(S(=O)(=O)NCc2nc(N(C)C)no2)cc1`: -5% and 0.83.
The matching figures for `Cc1cccc(C(=O)N(Cc2ccc(C#N)cc2)c2nc3[nH]c(C)c(Cc4ccccc4)c(=O)n3n2)c1`: 8% and -1.03.
Regarding `CC(=O)N1CCN(c2cc(N(C)C)nc(C)n2)CC1`, the “% Inhibition” value is -16% and the Z score was determined as 1.8.
Regarding `O=C(Cc1ccnc(O)c1Br)NCCC1=CCCCCC1`, the “% Inhibition” value worked out at 10% and the Z score was -1.26.
Turning to `Fc1ccc(CN2CCN3CCOC[C@@H]3C2)cc1Cl`, the “% Inhibition” value is on record as -1% and the Z score was determined as 0.08.
As to `CCCn1nc(C)c(Cn2cnc(-c3ccccc3)c2[C@H]2CCOC2)c1C`, the “% Inhibition” value is recorded as -9% and the Z score is 0.92.
As for `C[C@@H]1CN(C2CCN(C(=O)c3cnn4ccccc34)CC2)C[C@H](C)O1`, the “% Inhibition” value is on record as -17% and the Z score came to 1.84.
On to `CN(C(=O)c1ccc(Br)c(Cl)c1)c1cccnc1`, for which the “% Inhibition” value is -8% and the Z score stood at 0.9.
`COc1ccc2cc(C(=O)NCCCc3nnc(N)s3)n(C)c2c1`: the “% Inhibition” value was -7% and the Z score was 0.9.
Take `Nc1nc(Cn2cccc(C(F)(F)F)c2=O)nc(Nc2ccccc2)n1`: the “% Inhibition” value is -3% and the Z score stood at 0.25.
Turning to `CS(=O)(=O)N1CCC(C(=O)NC2(c3cccs3)CCOCC2)CC1`, the “% Inhibition” value amounted to 8% and the Z score was -1.15.
`Cc1ccc(OCCNC(=O)NCC(C)C)c(C)c1`: the “% Inhibition” value is on record as -11% and the Z score was determined as 1.34.
`Cc1cc2c(cc1C)O[C@H](C(=O)NCc1cnc(N3CCOCC3)c(F)c1)C2`: the “% Inhibition” value was determined as 10% and the Z score is -1.04.
On to `c1ccc2sc(N[C@H]3CCOC4(CCOCC4)C3)nc2c1`, for which the “% Inhibition” value is on record as -16% and the Z score is reported as 1.83.
As for `Cc1noc(C)c1S(=O)(=O)N[C@H]1CCOc2ccccc21`, the “% Inhibition” value was 29% and the Z score is -3.83.
In the case of `CC(C)Cc1cc(C(=O)N2CCC3(CC2)c2ccccc2C[C@@H]3O)no1`, the “% Inhibition” value was 4% and the Z score is on record as -0.71.
For `Nc1nccnc1C(=O)OCC(=O)NC1CCCCCC1`, the “% Inhibition” value is on record as -7% and the Z score stood at 1.42.
Turning to `CCN(CC)c1nc(N)cc(-c2cc(N)nc3[nH]ccc23)n1`, the “% Inhibition” value is on record as -2% and the Z score was 0.45.
As to `Cc1noc(NC(=O)c2nn(C)c(=O)c3ccccc23)n1`, the “% Inhibition” value was -5% and the Z score is 0.79.
The matching figures for `Cc1cc(C(=O)N2CCC[C@H](Cn3cnc4ccccc43)C2)ns1`: 10% and -1.11.
Take `CCOc1ccc(-c2cc3nc(C4CCN(C(=O)OC(C)(C)C)CC4)c(C(=O)O)cn3n2)cc1`: the “% Inhibition” value came out at 21% and the Z score is -3.19.
Take `CN1CCN(C(=O)c2cccn2C)CC1=O`: the “% Inhibition” value was 21% and the Z score is given as -2.48.
`C[C@H](NC(=O)C1CCN(S(C)(=O)=O)CC1)c1ccc(N2CCCC2)cc1`: the “% Inhibition” value was -12% and the Z score amounted to 1.61.
Regarding `Cc1ccc(C(=O)N2CC[C@H](Cc3nnc(C4CCOCC4)o3)C2)s1`, the “% Inhibition” value is on record as -18% and the Z score amounted to 2.36.
The matching figures for `COc1cc(CNCCc2nncn2C)cc(Br)c1OCc1ccccc1`: 0% and -0.02.
Take `Cc1nc2c3ccccc3nc(N(C)[C@@H](C)c3ccccn3)n2n1`: the “% Inhibition” value is on record as -13% and the Z score was found to be 2.42.
Take `Cc1noc(C)c1CN1C[C@H]2CC[C@@H](C1)N(C(=O)c1cccc(Cl)c1)C2`: the “% Inhibition” value is listed as -9% and the Z score was determined as 1.72.
On to `Cc1cccc(NC(=O)CCC(=O)OCC(F)(F)F)c1C`, for which the “% Inhibition” value is listed as 37% and the Z score is -5.34.
On to `CC(C)(C)NC(=O)N1C2CCC1CC(=C1CC1)C2`, for which the “% Inhibition” value is -9% and the Z score is listed as 1.26.
For `COc1cccnc1-c1ccccc1CN1CCOCC1`, the “% Inhibition” value is -5% and the Z score is 0.97.
Regarding `CCn1c(-c2cc(NC(=O)c3cc(C)cc(C)c3)[nH]n2)cc2ccccc21`, the “% Inhibition” value is -14% and the Z score worked out at 1.71.
As to `Cc1noc(C)c1CC(=O)N1CCC(Oc2cnc3ccccc3n2)CC1`, the “% Inhibition” value is on record as -14% and the Z score is recorded as 2.71.
Consider `Clc1cccc2c1CCN(C1CCN(Cc3ccco3)CC1)C2`, for which the “% Inhibition” value was -7% and the Z score came out at 0.67.
The like results for `CC(=O)Nc1nc2ccc(NC(=O)CN3C(=O)c4ccccc4C3=O)cc2s1` were, in that order, -6% and 1.02.
The like results for `COCCN1C[C@@H](CNC(=O)c2ccccc2-c2cccc(C)c2)CC1=O` were, in that order, -3% and 0.49.
On to `Nc1cccc(Nc2nnc3c(=O)[nH]c(=O)[nH]c3n2)c1`, for which the “% Inhibition” value was 28% and the Z score was -3.14.
The matching figures for `CN(C)C(=O)c1ccc(CN(C)[C@H](c2ccccc2)C(F)(F)F)[nH]1`: -14% and 1.99.
Consider `CC(=O)Nc1ccc(C)c(NC(=O)CCN(C)c2ccccc2)c1`, for which the “% Inhibition” value is reported as -6% and the Z score is 1.13.
`Cc1ccc(NC[C@H]2CCN(c3nn4cc(C)nc4s3)C2)nc1`: the “% Inhibition” value is listed as -9% and the Z score was 1.39.
The matching figures for `CCN(C[C@H]1CCCCO1)S(=O)(=O)c1c(C)cc(C)c2nonc12`: -9% and 1.58.
The matching figures for `CCc1n[nH]c(NC(=O)[C@@H]2CC[C@H](C)O2)c1Br`: 5% and -0.55.
For the compound `CN(c1nc2c(c(N3CCCCC3)n1)CN(S(=O)(=O)c1cccc(Cl)c1)CC2)C1CCCCC1`, the “% Inhibition” value came to 4% and the Z score was -0.39.
As to `COC[C@H]1CCCN(Cc2cc(CN3CCN(C)CC3)c(C)cc2C)C1`, the “% Inhibition” value is on record as -24% and the Z score was found to be 2.1.
`Cc1cnc(Cn2cnc(-c3ccccc3)c2-c2sccc2C)cn1`: the “% Inhibition” value was -10% and the Z score is on record as 1.59.
As for `c1coc(CN2CN(c3nc4ccccc4s3)CN(c3nc4ccccc4s3)C2)c1`, the “% Inhibition” value is -7% and the Z score was determined as 1.05.
